The target of one data set is PKA (Homo sapiens (Human), UniProt P17612). Description: PKA ADP-Glo kinase enzyme inhibition assay. It is filed as biochemical. The following applies: read-out: PKAIC50. On the procedure: (§1) We measured ROCK and PKA kinase enzyme activity inhibition by compounds using commercially available ROCK1 (Promega Corporation, cat #V9581), ROCK2 (Promega, cat #V4045), and PKA kinase (Promega, cat #V4247) ADP-Glo™ assay kits. ADP-Glo™ Kinase Assay is a luminescent ADP detection assay that provides a homogeneous method to measure kinase activity by quantifying the amount of ADP produced during a kinase reaction. The assay is performed in two steps. First, after the kinase reaction, an equal volume of ADP-Glo™ Reagent is added to terminate the kinase reaction and deplete the remaining ATP. Second, the Kinase Detection Reagent is added to simultaneously convert ADP to ATP and allow the newly synthesized ATP to be measured using a luciferase/luciferin reaction. The light generated is measured using a luminometer. A complete protocol is included with the kits and is also available at the Promega website. The assay is briefly described below. • 1. Diluted enzyme, substrate, ATP, and compounds (inhibitors) in Kinase Buffer (40 mM Tris, 7.5, 20 mM MgCl2, 0.1 mg/ml BSA, 50 μM DTT). • 2. […]
(§2) Recorded luminescence (Integration time 1 second) using a plate-based luminometer.
(§3) Calculated Percent Enzyme Activity: First subtract the signal of the negative control (no enzyme and no inhibitor) from each sample's signal. […]
On the technique in general: In ADP-Glo the light output rises with the ADP produced.

The target of a further data set is ROCK2 (Homo sapiens (Human), UniProt O75116). Description: ROCK2 ADP-Glo kinase enzyme inhibition assay. It is filed as biochemical. The following applies: Exp #2. On the procedure: as §1, §2, §3
In a further data set the target is RSK2 (Homo sapiens (Human), UniProt P51812). Description: AGC Kinase Selectivity Profiling (ADP-Glo). In kind it is biochemical. The following applies: 1 μM compound; AGC Panel; read-out: Percent enzyme activity inhibition, RSK2. From the text:
(§4) ROCK1 (also called ROCK I, ROKβ, Rho-kinase β, or p160ROCK) and ROCK2 ((also known as ROCK II, ROKα, or Rho kinase) belong to AGC family of serine/threonine kinases. The group of AGC kinases consists of 63 evolutionarily related serine/threonine protein kinases comprising PDK1, PKB/Akt, SGK, PKC, PRK/PKN, MSK, RSK, S6K, PKA, PKG, DMPK, MRCK, ROCK, NDR, LATS, CRIK, MAST, GRK, Sgk494, and YANK, while two other families, Aurora and PLK, are the most closely related to the group (Leroux et al., AGC kinases, mechanisms of regulation and innovative drug development, Semin Cancer Biol. 2018 February; 48:1-17).

For the next data set, the target named is PKCa (Homo sapiens (Human), UniProt P17252). Description: AGC Kinase Selectivity Profiling (ADP-Glo). In kind it is biochemical. The following applies: 1 μM compound; AGC Panel; read-out: Percent enzyme activity inhibition, PKCa.
From the text: as §4

Another data set addresses PRKG1 (Homo sapiens (Human), UniProt Q13976). Description: AGC Kinase Selectivity Profiling (ADP-Glo). It is filed as biochemical. The following applies: 1 μM compound; AGC Panel; read-out: Percent enzyme activity inhibition, PRKG1.
From the text: as §4

For a further data set, the target named is ROCK1 (Homo sapiens (Human), UniProt Q13464). Description: AGC Kinase Selectivity Profiling (ADP-Glo). In kind it is biochemical. The following applies: 1 μM compound; AGC Panel.
From the text: as §4

A further data set has as its target PKCb II (Homo sapiens (Human), UniProt P05771). Description: AGC Kinase Selectivity Profiling (ADP-Glo). In kind it is biochemical. Particulars: 1 μM compound; AGC Panel; read-out: Percent enzyme activity inhibition, PKCb II.
From the text: as §4

A further data set has as its system Phospho-MYPT1 Thr853. Description: Inhibition of MYPT1 phosphorylation in human trabecular meshwork (hTM) cells, western blot. On the procedure:
The outflow of aqueous humor across the trabecular meshwork (TM) is regulated by, among other factors, actomyosin contraction of the TM cells and altered extracellular matrix. ROCK is known to inhibit the phosphatase activity of myosin light chain phosphatase (MLCP) by phosphorylating MYPT1 at amino acids Thr696 and Thr853. […] Media with inhibitors was suctioned off, wells washed 2 times with cold PBS pH 7.4 buffer, and attached cells were scrapped off with 500 μl (T75 flasks) or 100 μl (6-well plates) SDS-PAGE sample buffer, and collected into 1.5 ml microcentrifuge tubes. • 5.
Two days before compound addition 6-well plates were seeded at a density of 75,000 cells/well. On the day of compound addition media was replaced with 3 ml fresh media containing compounds at different concentration. Fifteen hours after compound addition cells in each well were lysed with 0.2 ml extraction buffer (SDS-PAGE sample buffer containing […] and protease inhibitors) and extracts were collected.
Compounds (10 μM) were added to hTM cells cultured in 60 mm plates and cell extracts collected after […]. Cells were lysed with 0.2 ml lysis buffer and 20 μl extract was loaded in each lane (FIG. 7).

A further data set concerns HEK293 cells. Description: CellTiter-Glo Luminescent Cell Viability Assay. The following applies: HEK293 cells, 25, 2.5, or 0.25 μM, two days. (In general: Cellular ATP, detected with luciferase, serves as a proxy for viable cell number.)
Data set [1] concerns the target PKA-NanoLuc fusion protein (Homo sapiens (Human), UniProt P17612). Description: PKA-NanoBRET Target Engagement Intracellular Kinase Assay in HEK293 cells. In kind it is cell-based. Particulars: live HEK293 cells, 2 hours; read-out: Estimated IC50, inhibition of NanoBRET tracer binding to PKA. On the procedure: NanoBRET™ TE assay is based on the NanoBRET™ System, an energy transfer technique designed to measure molecular proximity in living cells. The NanoBRET™ TE assay measures the apparent affinity of test compounds by competitive displacement of the NanoBRET™ tracer, reversibly bound to a NanoLuc® luciferase-kinase fusions in cells. Using the NanoBRET™ TE Kinase Assay, a fixed concentration of tracer is added to cells expressing the desired NanoLuc® kinase fusion to generate a BRET signal. […] Centrifuged culture, resuspended cells in fresh culture media, and dispense 85 ul in to wells of 96-well plate. • 3. […] Added 10 μl of 10× serially diluted inhibitor compound per well containing cells with IX NanoBRET Tracer Reagent. Thoroughly mixed plate on an orbital shaker for 15 seconds at 700 rpm. • 5. […] Equilibrated plate to room temperature for ˜15 minutes. • 6. […] Measured donor emission wavelength (450 nm) and acceptor emission wavelength (610 nm) using the GloMax® Discover System (Promega). To generate raw BRET ratio values, divided the acceptor emission value (610 nm) by the donor emission value (450 nm) for each sample.

Data set [2] relates to New Zealand White rabbits. Particulars: 0.1 ml, 20 mg/ml in saline. From the text:
The right eye that was not treated served as the control. […] The eyes of initial and confirmatory test animals were examined with slit lamp for ocular lesions. […] The animals were also observed for clinical signs of toxicity, morbidity and mortality.

For the next data set, the system named is hTM cells. Description: hTM cell morphology changes (microscopy). The following applies: 10 μM, 20 hours.

pIC50: −log10 of the molar value.

For the compound `C[C@H]1CNCCCN1S(=O)(=O)c1cccc2cncc(F)c12` [Ripasudil, reference compound], the values for the pIC50 on PKA and against ROCK2 were < 6.00 and 7.05, respectively.

As a reminder, the inhibition is the relative decrease from the control value, in per cent. As for `Cc1ccc(C(=O)OCc2ccc([C@@H](CN)C(=O)Nc3ccc4cnccc4c3)cc2)c(C)c1.Cl.Cl` [Netarsudil•2HCl, Netarsudil, reference compound], the inhibition at 1 µM worked out at 65% at RSK2, 65% at PKCa, 82% on PRKG1 and 45% on PKCb II. Besides, the “Percent enzyme activity inhibition, ROCK1” value at ROCK1 was 88%.

Take `Cl.Cl.NCC(C(=O)Nc1ccc2cnccc2c1)c1ccc(B(O)O)cc1` (stereo not shown) [Compound 10•2HCl]: the “Inhibition of MYPT1 Thr853 phosphorylation (western blot)” value in the data set with Phospho-MYPT1 Thr853 (2.5 μM inhibitors) is given as “inhibited phosphorylation of MYPT1”; with Phospho-MYPT1 Thr853 (10 μM inhibitors, 7 hours), “completely inhibited MYPT1 phosphorylation”.

With `Cl.Cl.NCC(C(=O)Nc1ccc2cnccc2c1)c1ccc(CO)cc1` (racemic) [Netarsudil-M1-racemate.2HCl], the “Cell viability (ATP amount)” value in the data set with HEK293 cells was “inhibited cell growth only at 25 μM concentration”. Also, the pIC50 in data set [1] is 6.44. Besides, the “clinical signs of toxicity, morbidity and mortality” value in data set [2] is reported as “No treatment-related adverse effects were noticed”. In addition, in the data set on hTM cells, the hTM cell morphology result is on record as “appeared slightly contracted”. Also, the “Inhibition of MYPT1 Thr853 phosphorylation (western blot)” value in the data set with Phospho-MYPT1 Thr853 (2.5 μM inhibitors) is on record as “inhibited phosphorylation of MYPT1”; with Phospho-MYPT1 Thr853 (10 μM inhibitors, 7 hours) it was “completely inhibited MYPT1 phosphorylation”.

`O=S(=O)(c1cccc2cnccc12)N1CCCNCC1` [Fasudil]: the “Inhibition of MYPT1 phosphorylation (western blot)” value with Phospho-MYPT1 Thr853 (10 μM, 24 hours) was “did not inhibit MYP2 phosphorylation”.

(Values after patent US12479866B2, “Boron-containing rho kinase inhibitors” (Percipiad, Inc., priority 2019, dated 2025).)
